Hit rate of the full screen: of about 150,000 compounds, about 540 (0.36%) showed an effect of 50% or more. The list shows a part of the results.
Test system: Plasmodium falciparum
Test: Primary screen in NF54 nanoGlo assay, in single point, at 2uM, 72h; a lower Z score goes with more inhibition
Type: functional, Erythrocyte
Conditions: timepoint 72 hour

First: Cc1nn(-c2ccccc2)c2nc(C(=O)N3[C@H](C)CCC[C@@H]3C)ccc12
Second: CCc1ccccc1NC(=O)N1C[C@@H]2CCCN2c2ccccc21
The “% Inhibition” value of the first is higher: 19% for the first, -10% for the second.

Going from `Cc1ccccc1-c1cc2n(n1)CCC(=O)N2CC(=O)NCc1ccccc1F` to `CCc1cccc(NC(=O)Cn2nc(N3CCCC3)c3ccccc3c2=O)c1`, the “% Inhibition” value rises from -14% to -5%.

Going from `CCc1ccc(C(NC(=O)N2CCC(C(C)O)C2)C(C)(C)C)o1` (stereo not given) to `CC(C)(C)OC(=O)[C@@H](NC(=O)C1CCCO1)c1ccccc1` (stereo not given in full), the “% Inhibition” value rises from -17% to -4%.

Going from `CNC(=O)N[C@H]1CCCN(Cc2c(C)nsc2C)C1` to `CNc1snc(C)c1C(=O)N1CCOC2CCCCC21` (stereo not given), the “% Inhibition” value falls from 1% to -4%.

First: Cc1cc(Cl)c2ncc(C#N)c(NCC3(S(C)(=O)=O)CC3)c2c1
Second: Cc1nc(C2(C)CCN(S(=O)(=O)c3cccc4nsnc34)CC2)no1
The “% Inhibition” value of the first is higher: -6% for the first, -9% for the second.

First: Fc1ccc([C@@H]2CCCN2CCN2CCCOCC2)cc1F
Second: O=C(Nc1ccc(N2CCOCC2)nc1)C1CC2CCC1C2 (stereo not given)
The “% Inhibition” value of the first is higher: 0% for the first, -10% for the second.

Compared with `O=C1NCCCC[C@@H]1N1CCC(C(F)(F)F)CC1`, `O=C1NCCCc2[nH]c(C3CCCCC3)nc21` is higher in “% Inhibition” value: -6% for the first, 2% for the second.

First: CCOC(=O)C1CCC(CN(Cc2c(Cl)cccc2Cl)S(=O)(=O)c2ccc(OC)cc2)CC1 (stereo not given)
Second: O=C(NCc1ccc(Cl)cc1Cl)C1CCN(S(=O)(=O)c2ccc3c(c2)CCC3)CC1
The “% Inhibition” value of the first is lower: 10% for the first, 12% for the second.

Going from `CC(C)Cc1nnc(C[C@H]2CCN(S(=O)(=O)C(C)C)C2)o1` to `CC(C)[C@@H]1C[C@@H](CNS(=O)(=O)c2ccnn2C)c2ccccc21`, the “% Inhibition” value rises from -12% to 10%.

Compared with `c1ccn2c(CCNC3CCCCCCC3)nnc2c1`, `Nc1nnc(CCc2ccccc2N)[nH]1` is higher in “% Inhibition” value: 1% for the first, 34% for the second.

First: CCc1cc(N2CCN(c3nc4c(s3)c(C)nn4C)CC2)ncn1
Second: CCCc1cc(NCCn2cnc(C)c2C)nc(C)n1
The “% Inhibition” value of the first is lower: -12% for the first, -6% for the second.

Compared with `CCCN(Cc1ccc(C)cc1)C(=O)CN(c1ccnn1C(C)C)S(=O)(=O)c1ccccc1`, `CCc1ccc(N2C(=O)CC[C@@]2(C)C(=O)NCc2ccccc2)cc1` is lower in “% Inhibition” value: 24% for the first, -1% for the second.

Compared with `C#Cc1cccc(NC(=O)NC[C@H]2CC(C(N)=O)=NO2)c1`, `COCC(C)NC(=O)C(C#N)C(=O)c1ccc(C)c(F)c1` (stereo not given) is lower in “% Inhibition” value: -4% for the first, -9% for the second.

First: C=CCNCC#CCOc1c(C)cccc1C
Second: CCCN(C)c1nccn2c(=O)n(CC(=O)Nc3ccc(C)c(Cl)c3)nc12
The “% Inhibition” value of the first is higher: 4% for the first, -11% for the second.

Going from `Cc1nc2ccc(NC(=O)Cc3noc4ccccc34)cc2s1` to `O=C(Cc1cccs1)Nc1nc(-c2ccccc2)cs1`, the “% Inhibition” value falls from -11% to -12%.

First: CC(C)c1nc(CNC(=O)c2ncoc2C2CC2)cs1
Second: CC(=O)Nc1nc(C(=O)NC[C@H](C)N2CCCC2)cs1
The “% Inhibition” value of the first is lower: -4% for the first, 8% for the second.

`O=C([C@H]1CCCN(S(=O)(=O)Cc2ccc(Cl)cc2)C1)N1CCc2ccccc21` and `NC(=O)[C@@H]1Cc2ccccc2N1S(=O)(=O)c1ccc2c(c1)CCO2` are the same in “% Inhibition” value: -6% for the first, -6% for the second.

Going from `O=C(Nc1ccc2[nH]c(=O)[nH]c2c1)c1cccc(S(=O)(=O)NCc2cccs2)c1` to `O=S(=O)(c1ccccc1)c1nc(NCc2ccccc2)sc1Cl`, the “% Inhibition” value falls from 0% to -6%.

First: COc1ccccc1N1CCN(C(=O)[C@H](CC(C)C)NC(=O)C2CCC(C)CC2)CC1 (stereo not given in full)
Second: CC1CN(C(C(=O)N2CCCC(n3cccn3)C2)C(C)C)CC(C)O1 (stereo not given)
The “% Inhibition” value of the first is higher: -5% for the first, -9% for the second.

Going from `Cc1nc(NC(=O)N2CCN(C(C)C)CC2)nn1C` to `Cc1cc(C)c(C(=O)N2CCN(c3ncc(F)cn3)C(=O)C2)c(C)c1`, the “% Inhibition” value rises from 4% to 17%.

First: C#CCN(C)Cc1nc(C2(O)CCN(C3COC3)CC2)cs1
Second: CCCCN(C)C(=O)[C@@H]1Cc2[nH]cnc2C2(CCCCC2)N1
The “% Inhibition” value of the first is higher: -3% for the first, -11% for the second.

Going from `Cc1ccc2c(c1)CN(CCC(=O)NC(C)c1ccc(F)cc1)CC(C)O2` (stereo not given) to `CCc1nc(-c2ccc(C(=O)Nc3ccc(F)cc3Cl)cc2)no1`, the “% Inhibition” value rises from -4% to 8%.

Going from `O=C(NCCOCc1ccc(Cl)cc1)[C@@H]1NCCc2[nH]cnc21` to `Cn1cc(N2C[C@@H](C(=O)NCC=Cc3cccnc3)CCC2=O)cn1`, the “% Inhibition” value falls from 4% to -4%.

Going from `CCC(C)C(OC)C(=O)Nc1cn(C)c(=O)n(C)c1=O` (stereo not given) to `CC(C)c1nc(Cc2ccc(F)cc2Cl)n(C)n1`, the “% Inhibition” value falls from -1% to -7%.

Going from `Cc1cc(C(=O)NCCCn2ccnc2)no1` to `O=C(c1c(F)cccc1F)N1C2CCC1CC(n1cncn1)C2` (stereo not given), the “% Inhibition” value rises from -7% to -2%.

Compared with `CC(C)(C)[C@H](NCCC(=O)Nc1sccc1C#N)c1cccs1`, `Cc1ccc(NC2=NC(N)=NC(C)(C)N2)cc1` is higher in “% Inhibition” value: -3% for the first, 0% for the second.

Going from `COc1ccc(-c2ccc(=O)n(CN3CCn4c(nnc4C(F)(F)F)C3)n2)cc1OC` to `CC(C)c1ncc(CN2CCOc3cc(F)ccc32)s1`, the “% Inhibition” value falls from -2% to -11%.

For `O=C1C[C@H](c2ccccc2F)c2cnn(Cc3ccco3)c2N1`, the “% Inhibition” value was 3%.

Going from `Cc1nn(-c2ccccc2)c2nc(C(=O)N3[C@H](C)CCC[C@@H]3C)ccc12` to `CCc1ccccc1NC(=O)N1C[C@@H]2CCCN2c2ccccc21`, the Z score rises from -2.38 to 1.37.

First: Cc1ccccc1-c1cc2n(n1)CCC(=O)N2CC(=O)NCc1ccccc1F
Second: CCc1cccc(NC(=O)Cn2nc(N3CCCC3)c3ccccc3c2=O)c1
The Z score of the first is higher: 1.38 for the first, 0.59 for the second.

First: CCc1ccc(C(NC(=O)N2CCC(C(C)O)C2)C(C)(C)C)o1 (stereo not given)
Second: CC(C)(C)OC(=O)[C@@H](NC(=O)C1CCCO1)c1ccccc1 (stereo not given in full)
The Z score of the first is higher: 2.35 for the first, 0.82 for the second.

Compared with `CNC(=O)N[C@H]1CCCN(Cc2c(C)nsc2C)C1`, `CNc1snc(C)c1C(=O)N1CCOC2CCCCC21` (stereo not given) is higher in Z score: -0.15 for the first, 0.54 for the second.

First: Cc1cc(Cl)c2ncc(C#N)c(NCC3(S(C)(=O)=O)CC3)c2c1
Second: Cc1nc(C2(C)CCN(S(=O)(=O)c3cccc4nsnc34)CC2)no1
The Z score of the first is lower: 0.52 for the first, 1.17 for the second.

Compared with `Fc1ccc([C@@H]2CCCN2CCN2CCCOCC2)cc1F`, `O=C(Nc1ccc(N2CCOCC2)nc1)C1CC2CCC1C2` (stereo not given) is higher in Z score: 0.02 for the first, 1.95 for the second.

First: O=C1NCCCC[C@@H]1N1CCC(C(F)(F)F)CC1
Second: O=C1NCCCc2[nH]c(C3CCCCC3)nc21
The Z score of the first is higher: 0.8 for the first, -0.24 for the second.

Compared with `CCOC(=O)C1CCC(CN(Cc2c(Cl)cccc2Cl)S(=O)(=O)c2ccc(OC)cc2)CC1` (stereo not given), `O=C(NCc1ccc(Cl)cc1Cl)C1CCN(S(=O)(=O)c2ccc3c(c2)CCC3)CC1` is lower in Z score: -1.17 for the first, -1.4 for the second.

First: CC(C)Cc1nnc(C[C@H]2CCN(S(=O)(=O)C(C)C)C2)o1
Second: CC(C)[C@@H]1C[C@@H](CNS(=O)(=O)c2ccnn2C)c2ccccc21
The Z score of the first is higher: 1.74 for the first, -1.25 for the second.

Compared with `c1ccn2c(CCNC3CCCCCCC3)nnc2c1`, `Nc1nnc(CCc2ccccc2N)[nH]1` is lower in Z score: -0.09 for the first, -3.82 for the second.

First: CCc1cc(N2CCN(c3nc4c(s3)c(C)nn4C)CC2)ncn1
Second: CCCc1cc(NCCn2cnc(C)c2C)nc(C)n1
The Z score of the first is higher: 1.84 for the first, 0.75 for the second.

Compared with `CCCN(Cc1ccc(C)cc1)C(=O)CN(c1ccnn1C(C)C)S(=O)(=O)c1ccccc1`, `CCc1ccc(N2C(=O)CC[C@@]2(C)C(=O)NCc2ccccc2)cc1` is higher in Z score: -2.59 for the first, 0.16 for the second.

First: C#Cc1cccc(NC(=O)NC[C@H]2CC(C(N)=O)=NO2)c1
Second: COCC(C)NC(=O)C(C#N)C(=O)c1ccc(C)c(F)c1 (stereo not given)
The Z score of the first is lower: 0.49 for the first, 1.37 for the second.

Going from `C=CCNCC#CCOc1c(C)cccc1C` to `CCCN(C)c1nccn2c(=O)n(CC(=O)Nc3ccc(C)c(Cl)c3)nc12`, the Z score rises from -0.69 to 1.07.

Going from `Cc1nc2ccc(NC(=O)Cc3noc4ccccc34)cc2s1` to `O=C(Cc1cccs1)Nc1nc(-c2ccccc2)cs1`, the Z score rises from 2.06 to 2.51.

Compared with `CC(C)c1nc(CNC(=O)c2ncoc2C2CC2)cs1`, `CC(=O)Nc1nc(C(=O)NC[C@H](C)N2CCCC2)cs1` is lower in Z score: 0.5 for the first, -1.39 for the second.

Compared with `O=C([C@H]1CCCN(S(=O)(=O)Cc2ccc(Cl)cc2)C1)N1CCc2ccccc21`, `NC(=O)[C@@H]1Cc2ccccc2N1S(=O)(=O)c1ccc2c(c1)CCO2` is lower in Z score: 0.81 for the first, 0.72 for the second.

Compared with `O=C(Nc1ccc2[nH]c(=O)[nH]c2c1)c1cccc(S(=O)(=O)NCc2cccs2)c1`, `O=S(=O)(c1ccccc1)c1nc(NCc2ccccc2)sc1Cl` is higher in Z score: 0.01 for the first, 0.56 for the second.

Compared with `COc1ccccc1N1CCN(C(=O)[C@H](CC(C)C)NC(=O)C2CCC(C)CC2)CC1` (stereo not given in full), `CC1CN(C(C(=O)N2CCCC(n3cccn3)C2)C(C)C)CC(C)O1` (stereo not given) is higher in Z score: 0.52 for the first, 1.18 for the second.

First: Cc1nc(NC(=O)N2CCN(C(C)C)CC2)nn1C
Second: Cc1cc(C)c(C(=O)N2CCN(c3ncc(F)cn3)C(=O)C2)c(C)c1
The Z score of the first is higher: -0.51 for the first, -2.18 for the second.

First: C#CCN(C)Cc1nc(C2(O)CCN(C3COC3)CC2)cs1
Second: CCCCN(C)C(=O)[C@@H]1Cc2[nH]cnc2C2(CCCCC2)N1
The Z score of the first is lower: 0.47 for the first, 1.55 for the second.

Compared with `Cc1ccc2c(c1)CN(CCC(=O)NC(C)c1ccc(F)cc1)CC(C)O2` (stereo not given), `CCc1nc(-c2ccc(C(=O)Nc3ccc(F)cc3Cl)cc2)no1` is lower in Z score: 0.51 for the first, -0.82 for the second.

Going from `O=C(NCCOCc1ccc(Cl)cc1)[C@@H]1NCCc2[nH]cnc21` to `Cn1cc(N2C[C@@H](C(=O)NCC=Cc3cccnc3)CCC2=O)cn1`, the Z score rises from -0.83 to 0.63.

Going from `CCC(C)C(OC)C(=O)Nc1cn(C)c(=O)n(C)c1=O` (stereo not given) to `CC(C)c1nc(Cc2ccc(F)cc2Cl)n(C)n1`, the Z score rises from 0.14 to 0.91.

Going from `Cc1cc(C(=O)NCCCn2ccnc2)no1` to `O=C(c1c(F)cccc1F)N1C2CCC1CC(n1cncn1)C2` (stereo not given), the Z score falls from 0.85 to 0.2.

First: CC(C)(C)[C@H](NCCC(=O)Nc1sccc1C#N)c1cccs1
Second: Cc1ccc(NC2=NC(N)=NC(C)(C)N2)cc1
The Z score of the first is higher: 0.29 for the first, 0.07 for the second.

First: COc1ccc(-c2ccc(=O)n(CN3CCn4c(nnc4C(F)(F)F)C3)n2)cc1OC
Second: CC(C)c1ncc(CN2CCOc3cc(F)ccc32)s1
The Z score of the first is lower: 0.25 for the first, 1.43 for the second.

`O=C1C[C@H](c2ccccc2F)c2cnn(Cc3ccco3)c2N1` gave a Z score of -0.33.

Reference: ChEMBL document CHEMBL4888484, “Replenishing the malaria drug discovery pipeline: Screening and hit evaluation of the MMV Hit Generation Library 1 (HGL1) against asexual blood stage Plasmodium falciparum ,using a nano luciferase reporter read-out” (2022)
